# Laboratory results as given in article PMC4336329 (PLoS ONE, 2015).
# Screen size: about 310,000 compounds; about 14,000 (4.5%) showed an effect of 50% or more. Effects have a minus sign here. This is one part of the list.
# Biological target: human ether-à-go-go-related gene (hERG) potassium channel (human, UniProt Q12809)
# Assay: primary screen, population patch clamp on CHO cells stably expressing hERG
# 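Also: peak tail current of the secondary pulse compared with the same well before compound.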
# Chain of human ether-à-go-go-related gene (hERG) potassium channel (Q12809 whole entry, looked up): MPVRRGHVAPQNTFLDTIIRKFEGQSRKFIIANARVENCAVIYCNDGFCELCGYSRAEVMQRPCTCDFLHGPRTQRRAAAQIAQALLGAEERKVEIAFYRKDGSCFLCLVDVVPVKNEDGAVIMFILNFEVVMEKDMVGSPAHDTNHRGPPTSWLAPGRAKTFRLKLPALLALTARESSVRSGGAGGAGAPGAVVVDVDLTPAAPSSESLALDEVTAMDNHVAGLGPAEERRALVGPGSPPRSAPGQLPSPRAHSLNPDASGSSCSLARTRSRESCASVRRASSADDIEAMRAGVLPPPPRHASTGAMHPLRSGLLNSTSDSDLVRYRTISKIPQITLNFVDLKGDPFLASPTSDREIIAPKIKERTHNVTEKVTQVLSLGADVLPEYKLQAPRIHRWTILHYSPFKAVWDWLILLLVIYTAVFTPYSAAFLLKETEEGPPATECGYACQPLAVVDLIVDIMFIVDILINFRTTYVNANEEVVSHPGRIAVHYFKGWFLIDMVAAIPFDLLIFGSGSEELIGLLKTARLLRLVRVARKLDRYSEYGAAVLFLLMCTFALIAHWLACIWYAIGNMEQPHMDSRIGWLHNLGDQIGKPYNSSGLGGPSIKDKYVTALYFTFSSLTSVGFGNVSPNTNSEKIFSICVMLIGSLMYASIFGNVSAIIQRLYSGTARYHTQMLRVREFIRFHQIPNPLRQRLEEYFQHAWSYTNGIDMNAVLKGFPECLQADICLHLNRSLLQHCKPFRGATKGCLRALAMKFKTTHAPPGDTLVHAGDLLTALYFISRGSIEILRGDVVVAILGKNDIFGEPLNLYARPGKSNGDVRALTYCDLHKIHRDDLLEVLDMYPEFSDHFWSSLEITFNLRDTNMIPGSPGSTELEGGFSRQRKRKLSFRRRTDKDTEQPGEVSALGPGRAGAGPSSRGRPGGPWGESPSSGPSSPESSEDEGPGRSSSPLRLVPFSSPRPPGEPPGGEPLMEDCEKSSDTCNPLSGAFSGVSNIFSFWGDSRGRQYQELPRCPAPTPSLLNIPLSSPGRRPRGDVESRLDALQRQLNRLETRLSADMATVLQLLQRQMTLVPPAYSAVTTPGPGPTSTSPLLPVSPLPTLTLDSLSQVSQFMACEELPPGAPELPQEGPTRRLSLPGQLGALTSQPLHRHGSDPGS
row,Structure (SMILES),"hERG current change (%, negative = inhibition) at 10uM [%]"
1,CC1(C)O[C@H]2CC(=O)OC[C@]23[C@H]2CC[C@@]4(C)[C@H](c5ccoc5)OC(=O)[C@H]5O[C@]54[C@]2(C)[C@@H](O)C[C@@H]13,17.1
2,Cc1ccc(C(=O)C2CCN(C(=O)c3ccc(C)cc3)CC2)cc1,-36.8
3,O=C(C(Cc1ccccc1)n1cccc1)N1CCN(c2ccccc2)CC1 (centres unmarked),-7.46
4,COC(=O)Cn1c(=NC(=O)C(C)C)sc2c(C)cc(C)cc21,15.4
5,COc1cc(C(=O)OCC(=O)NC(C)CCc2ccccc2)cc(OC)c1OC (centres unmarked),9.14
6,N#Cc1nc(-c2ccc(OCc3ccc(Cl)cc3)cc2)oc1N1CCOCC1,7.35
7,CCN1C(=O)C2(C(C#N)=C(N)Oc3n[nH]c(-c4ccccc4)c32)c2ccccc21 (centres unmarked),6.05
8,COc1cccc(/C=C2\SC(N)=NC2=O)c1OS(=O)(=O)c1ccccc1,5.38
9,CCOC(=O)c1nc(Nc2ccccc2C)c2ccccc2n1,10.4
10,CN1CCC(Oc2ccccc2Sc2ccccc2)CC1.O=C(O)C(=O)O,-64.5
11,O=C(N/C(=C\c1ccc([N+](=O)[O-])cc1)C(=O)N1CCCCC1)c1ccc(Br)o1,-72
12,COc1ccccc1C(=O)Nc1ccnn1C1CCN(CCCC2CCCC2)CC1,-85.1
13,COCC(=O)OCc1cc2cccc(C)c2[nH]c1=O,1.89
14,CNc1nc(Cl)c(SC)c(NCc2cccc(OC)c2)n1,13.9
15,O=C(Nc1nc(-c2ccc(Cl)cc2)cs1)c1cccnc1,5.68
16,Cl.Oc1ccc(CN2CCCCC2)nc1-c1ccccc1,-40.8
17,COc1ccccc1CC(=O)NC1CCC(C)CC1 (centres unmarked),7.47
18,COC(=O)c1sc(NC(=O)C(C)C)c(C(=O)OC)c1C,17.1
19,COc1ccc2c(c1)OC[C@H]1[C@@H]2N2C(=O)CNC(=O)[C@@]2(C)[C@H]1c1ccccc1,10.9
20,Cn1c(/C=N/c2nc3ccccc3[nH]2)nc2ccccc21,3.85
21,CN(C)c1ccc(/C=N/NC(=O)c2cccc(C(=O)N/N=C/c3ccc(N(C)C)cc3)n2)cc1,10.4
22,Br.COc1ccc(C(=O)Cn2c(NCCO)nc3ccccc32)cc1OC,1.68

row,Structure (SMILES),"hERG current change (%, negative = inhibition) at 10uM [%]"
1,O=C(O)CCCC(=O)Nc1ccc(Sc2ccc([N+](=O)[O-])cc2)cc1,18.8
2,c1ccc(-c2nc3ccccc3o2)nc1,3.97
3,Nc1nc(-c2ccco2)nc(N2CCCCC2)n1,-0.365
4,Cc1ccc(N2C(=O)CC3(CCCC3)CC2=O)cc1,-5.41
5,COc1ccc(NC(C)=O)cc1NC(=O)CN1CCN(CC(=O)Nc2ccc(Cl)cc2)CC1,-69.8
6,Cc1ccc(C(=O)COC(=O)c2ccco2)cc1C,11.4
7,CCCC(=O)Nc1ccccc1N1CCN(C(=O)C(C)C)CC1,11.4
8,CN(C)S(=O)(=O)N1CCC(Oc2ccc(C(=O)NC3CCOC(C)(C)C3)cc2)CC1 (centres unmarked),1.41
9,Cc1nc(NCCOc2ccccc2)sc1C(=O)Nc1ccccc1,-8.96
10,CC(=O)c1cc2c(cc1NC(=O)Cn1nc(-c3ccc(C)cc3)ccc1=O)OCO2,-1.96
11,CC(C)[C@H](NC(=O)c1cccc(S(=O)(=O)N2CCOCC2)c1)C(=O)Nc1nccs1,-0.442
12,CCOc1cc([N+](=O)[O-])cc(/C=C2/NC(=O)N(Cc3ccccc3F)C2=O)c1O,-41.6
13,CCOC(=O)C(C)Sc1ccc2nnc(CCNS(=O)(=O)c3ccccc3)n2n1 (centres unmarked),7.34
14,COc1cc2c(cc1OC)C(c1ccccc1OC(C)C)CC(=O)N2 (centres unmarked),8.29
15,c1cncc(-c2nnc3n2N=C(c2cccs2)CS3)c1,-15.8
16,CC(=O)OCCNc1cc(SCc2ccco2)c2nonc2c1[N+](=O)[O-],-42.4
17,Cc1ccc(NC(=O)c2ccc(CN3CC(=O)N4CCCCC4C3=O)cc2)c(C)c1 (centres unmarked),-2.75
18,Cc1ccc(NC(=O)Cn2nnc(C(=O)NCc3cccs3)c2N)c(C)c1,16.5
19,Cc1c(C(=O)NCc2ccccc2CN2CCCC2)oc2c(F)cccc12,-70.5
20,Cc1ccc(OC(=O)C23CC4CC(CC(C4)C2)C3)c(C)n1,-16.9
21,O=[N+]([O-])c1cccc(CNc2ccc3c(c2)CCC3)c1,-4.71
22,O=C1CN(C(=O)c2ccccc2)C(c2ccccc2)c2cc(Cl)ccc2N1 (centres unmarked),-31
